This is a selection; strong and weak results do not stand in their true shares.
What follows are compounds tested against human SGLT1 (hSGLT1) (human, UniProt P13866) (assay: primary screen, percent of control activity; higher = less effect of the substance). Conditions: 50 µM.
Set-up: single well
Experimental: Two days before the assay, CHO‐wild type and CHO‐hSGLT1 cells were seeded in maintenance medium at 25 000 cells/well in clear‐bottom black 96‐well cell culture plates. Before the assay, cells were washed 3 times with 150 μL/well D‐glucose free DMEM with 0.3% (w/v) BSA. Library compounds at 50 μmol/L (singlicate) prepared in D‐glucose free DMEM with 160 μmol/L 1‐NBD‐glucose and 0.3% (w/v) BSA and negative controls (triplicate) were added at 100 μL/well and placed in a humidified incubator at 37°C with 5% CO2 for 90 minutes. Next, cells were washed 3 times with DMEM with 0.3% (w/v) BSA (150 μL/well). Care was taken to remove all medium after the last wash. Finally, 1‐NBD‐glucose was extracted from the cells by adding 10 μL/well isopropanol and orbital shaking for 5 minutes at 600 rpm, followed by incubation in the dark for 30 minutes. Fluorescence was measured on a Tecan Infinite M200 Microplate Reader (Tecan, Männedorf, Switzerland) with excitation at 445 nm and emission at 525 nm. The amount of 1‐NBD‐glucose taken up by the CHO‐wild type or CHO‐hSGLT1 cells in the presence or absence of test compounds was interpolated from 1‐NBD‐glucose calibration standards. The background uptake by CHO‐wild type was subtracted from the uptake by CHO‐hSGLT1. Background corrected uptake with test compound was expressed as a percentage of corrected uptake without test compound.

Row | SMILES | NORMALIZED SGLT1 ACTIVITY (%)
1 | CN1CCN(CC(=O)N2c3ccccc3C(=O)Nc3cccnc32)CC1.Cl.Cl | 116
2 | CN(C)C(=O)C(CCN1CCC(O)(c2ccc(Cl)cc2)CC1)(c1ccccc1)c1ccccc1.Cl | 188
3 | Clc1ccc(COC(Cn2ccnc2)c2ccc(Cl)cc2Cl)cc1.O=[N+]([O-])O (centres unmarked) | 49
4 | Cl.O=c1n(CCCN2CCN(c3cccc(Cl)c3)CC2)nc2ccccn12 | 142
5 | C[C@@H]1CC2C3CCC4=CC(=O)C=C[C@]4(C)[C@@]3(F)[C@@H](O)C[C@]2(C)[C@@]1(O)C(=O)COP(=O)([O-])[O-].[Na+].[Na+] (some centres unmarked) | 99
6 | Br.CN1C2CC[C@H]1C[C@@H](OC(=O)C(O)c1ccccc1)C2 (some centres unmarked) | 87
7 | CN1CCN(CCCN2c3ccccc3Sc3ccc(Cl)cc32)CC1.O=S(=O)(O)CCS(=O)(=O)O | 83
8 | Cl.Cl.Fc1ccc(C(c2ccc(F)cc2)N2CCN(C/C=C/c3ccccc3)CC2)cc1 | 68
9 | CN(C)CC/C=C1/c2ccccc2COc2ccccc21.Cl | 70
10 | Cc1ccccc1C(OCCN(C)C)c1ccccc1.O=C(O)CC(O)(CC(=O)O)C(=O)O (centres unmarked) | 81
11 | CCCCCCCCCCCCCCCC[n+]1ccccc1.[Cl-] | 16
12 | CC(C)NC[C@H](O)COc1cccc2ccccc12.Cl | 141
13 | CC(C)NCC(O)COc1cccc2ccccc12.Cl (racemic) | 403
14 | CSc1ccc2c(c1)N(CCC1CCCCN1C)c1ccccc1S2.Cl (centres unmarked) | 104
15 | Cl.Cl.OCCN1CCN(CCCN2c3ccccc3Sc3ccc(C(F)(F)F)cc32)CC1 | 90
16 | Cl.Oc1ccc2c3c1OC1[C@@H](O)CC[C@@]4(O)[C@@H](C2)N(CC2CCC2)CC[C@]314 (some centres unmarked) | 119
17 | CN1C2CCC1CC(OC(c1ccccc1)c1ccccc1)C2.CS(=O)(=O)O (centres unmarked) | 73
18 | Clc1ccc(CSC(Cn2ccnc2)c2ccc(Cl)cc2Cl)cc1.O=[N+]([O-])O (centres unmarked) | 64
19 | CCN(CC)CCOc1ccc(/C(=C(\Cl)c2ccccc2)c2ccccc2)cc1.O=C(O)CC(O)(CC(=O)O)C(=O)O | 110
20 | Clc1ccc(COC(Cn2ccnc2)c2ccc(Cl)cc2Cl)c(Cl)c1.O=[N+]([O-])O (centres unmarked) | 65
21 | CN(C)CCCN1c2ccccc2CCc2ccc(Cl)cc21.Cl | 39
22 | CN(C)CCN(Cc1cccs1)c1ccccn1.Cl | 67
23 | Clc1ccc(CO/N=C(\Cn2ccnc2)c2ccc(Cl)cc2Cl)c(Cl)c1.O=[N+]([O-])O | 209
24 | CNCCCC12CCC(c3ccccc31)c1ccccc12.Cl | 96
25 | CN[C@H]1CC[C@@H](c2ccc(Cl)c(Cl)c2)c2ccccc21.Cl | 5
26 | CNCCC(Oc1ccc(C(F)(F)F)cc1)c1ccccc1.Cl (centres unmarked) | 103
27 | CN1CCC[C@@H]1CCO[C@](C)(c1ccccc1)c1ccc(Cl)cc1.O=C(O)/C=C/C(=O)O | 54
28 | CC/C(=C(\c1ccccc1)c1ccc(OCCN(C)C)cc1)c1ccccc1.O=C(O)CC(O)(CC(=O)O)C(=O)O | 108
29 | CCN(CC)CCOC(=O)C1(C2CCCCC2)CCCCC1.Cl | 72
